# The other results are listed elsewhere or left out.
# What was measured:
# [1] = system: HSkMC (human skeletal muscle cells); test: cytotoxicity call (relative viability < 0.9); settings: 10 µM
# [2] = system: HepG2; test: cytotoxicity call (relative viability < 0.9); settings: 10 µM
# [3] = system: S. aureus RN4220; test: growth inhibition call (relative growth <= 0.2); settings: 50 µM
Structure (SMILES),cytotoxicity call [1],cytotoxicity call [2],growth inhibition call [3]
COc1ccc(-c2cnc3c(c2)C(=O)N([C@H](C)CO)C[C@H](C)[C@H](CN(C)C(=O)Cc2cccnc2)O3)cc1,inactive,inactive,inactive
C[C@H]1CN([C@@H](C)CO)C(=O)c2cc(-c3ccc(C(=O)N(C)C)cc3)cnc2O[C@H]1CN(C)C(=O)CN(C)C,inactive,inactive,inactive
CCN1CCCC1CNC(=O)c1cc(S(N)(=O)=O)ccc1OC (stereo not given),inactive,inactive,inactive
C[C@H]1CN([C@@H](C)CO)S(=O)(=O)c2ccc(C3=CCCCC3)cc2O[C@H]1CN(C)Cc1cncnc1,inactive,inactive,inactive
C[C@@H]1CN([C@H](C)CO)C(=O)c2cc(NS(=O)(=O)c3cccs3)ccc2O[C@H]1CN(C)Cc1ccc(Cl)c(Cl)c1,inactive,inactive,inactive
Cc1ccc(S(=O)(=O)N(C)C[C@H]2OCCCC[C@@H](C)Oc3ccc(NC(=O)Nc4ccccc4)cc3C(=O)N([C@@H](C)CO)C[C@@H]2C)cc1,inactive,inactive,inactive
C[C@@H]1CCCCO[C@@H](CN(C)Cc2ccc(C(=O)O)cc2)[C@H](C)CN([C@@H](C)CO)C(=O)c2cc(NC(=O)Nc3ccc4c(c3)OCO4)ccc2O1,inactive,inactive,inactive
C[C@H]1CN([C@@H](C)CO)C(=O)c2cccc(NC(=O)c3nc4ccccc4s3)c2O[C@@H]1CN(C)Cc1ccc(Oc2ccccc2)cc1,inactive,inactive,inactive
C[C@H]1CCCCO[C@H](CN(C)C(=O)c2ccccc2)[C@@H](C)CN([C@@H](C)CO)C(=O)c2cc(NS(=O)(=O)c3ccc(Cl)cc3)ccc2O1,inactive,inactive,inactive
Cc1ccc(S(=O)(=O)N(C)C[C@H]2Oc3c(NS(=O)(=O)c4cccs4)cccc3C(=O)N([C@@H](C)CO)C[C@H]2C)cc1,inactive,inactive,inactive
CCCNC(=O)Nc1ccc2c(c1)OC[C@H](C)N(C(=O)C1CCOCC1)C[C@@H](C)[C@H](OC)CN(C)C2=O,inactive,inactive,inactive
C[C@H](CO)N1C[C@H](C)[C@@H](CN(C)S(=O)(=O)c2cccs2)Oc2c(NC(=O)Cn3cnnn3)cccc2C1=O,inactive,inactive,inactive
CC(C)NC(=O)N(C)C[C@@H]1Oc2ccc(NC(=O)C3CCCCC3)cc2CC(=O)N([C@@H](C)CO)C[C@H]1C,inactive,inactive,inactive
NCc1cccc(O)c1,inactive,inactive,inactive
C[C@@H]1CN([C@@H](C)CO)C(=O)c2cc(NS(=O)(=O)c3cccs3)ccc2O[C@@H](C)CCCCO[C@H]1CN(C)Cc1ccc(C(=O)O)cc1,inactive,inactive,inactive
COc1ccc(S(=O)(=O)Nc2ccc3c(c2)C(=O)N([C@H](C)CO)C[C@H](C)[C@@H](CN(C)Cc2ccc(C(F)(F)F)cc2)OCCCC[C@@H](C)O3)cc1,active,inactive,inactive
C[C@@H]1CN([C@H](C)CO)C(=O)c2cc(NS(=O)(=O)c3cccs3)ccc2O[C@@H](C)CCCCO[C@@H]1CN(C)C(=O)NC1CCCCC1,inactive,active,inactive
C[C@H]1CN([C@@H](C)CO)C(=O)CCCn2nncc2CO[C@@H]1CN(C)S(=O)(=O)c1cccc(C#N)c1,inactive,inactive,inactive
C[C@H]1CN([C@@H](C)CO)C(=O)c2cccc(NC(=O)c3cnccn3)c2O[C@@H]1CN(C)Cc1ccc(C(=O)O)cc1,inactive,inactive,inactive
Cc1noc(C)c1NC(=O)Nc1ccc2c(c1)CC(=O)N([C@@H](C)CO)C[C@@H](C)[C@@H](CN(C)S(=O)(=O)c1c(C)noc1C)O2,inactive,inactive,inactive
COc1ccc(NC(=O)Nc2cccc3c2O[C@H](CN(C)Cc2ccc(Oc4ccccc4)cc2)[C@H](C)CN([C@@H](C)CO)C3=O)cc1,inactive,inactive,inactive
C[C@H](CO)N1C[C@H](C)[C@H](CN(C)C(=O)NC2CCCCC2)Oc2c(NS(=O)(=O)c3cn(C)cn3)cccc2C1=O,inactive,inactive,inactive
C[C@H](CO)N1C[C@H](C)[C@H](CN(C)C(=O)Cc2ccccc2)OCCCC[C@H](C)Oc2ccc(NC(=O)CCC(F)(F)F)cc2C1=O,inactive,inactive,inactive
Cc1c(C(N)=O)cc([N+](=O)[O-])cc1[N+](=O)[O-],inactive,inactive,inactive
Cc1ccc(S(=O)(=O)N(C)C[C@@H]2Oc3ccc(NS(=O)(=O)c4c(C)noc4C)cc3CC(=O)N([C@H](C)CO)C[C@@H]2C)cc1,inactive,inactive,inactive
CCC(C)(C)NC(=N)NC#N,inactive,inactive,inactive
COc1ccc(NC(=O)N(C)C[C@@H]2Oc3c(NS(C)(=O)=O)cccc3C(=O)N([C@@H](C)CO)C[C@@H]2C)cc1,inactive,inactive,inactive
Cn1nc(-c2ccccn2)nc2c(=O)n(C)c(=O)nc1-2,active,active,inactive

Structure (SMILES),cytotoxicity call [1],cytotoxicity call [2],growth inhibition call [3]
CO[C@@H]1CN(C)C(=O)c2cc(NC(=O)c3ccccc3)ccc2OC[C@@H](C)N(C(=O)CN(C)C)C[C@@H]1C,inactive,inactive,inactive
C[C@@H]1CN([C@@H](C)CO)C(=O)c2cc(NC(=O)c3ccccc3)ccc2O[C@@H](C)CCCCO[C@@H]1CN(C)Cc1ccncc1,inactive,inactive,inactive
O=C(CN1CCOCC1)N[C@@H]1CC[C@H](CCNC(=O)C2CCC2)O[C@@H]1CO,inactive,inactive,inactive
C[C@H](CO)N1C[C@H](C)[C@H](CN(C)CC2CCCCC2)OCCCC[C@H](C)Oc2ccc(NC(=O)C3CCCCC3)cc2C1=O,inactive,inactive,inactive
C[C@@H]1CCCCO[C@@H](CN(C)C(=O)Nc2ccc(C(F)(F)F)cc2)[C@@H](C)CN([C@H](C)CO)C(=O)c2cc(NS(=O)(=O)c3ccc(Cl)cc3)ccc2O1,inactive,inactive,inactive
CC(C)CC#Cc1ccc2c(c1)O[C@H](CN(C)C(=O)c1cccnc1)[C@H](C)CN([C@@H](C)CO)S2(=O)=O,inactive,inactive,inactive
Cc1noc(C)c1S(=O)(=O)N(C)C[C@@H]1Oc2ccc(NS(=O)(=O)c3cccs3)cc2CC(=O)N([C@@H](C)CO)C[C@H]1C,inactive,inactive,inactive
O=C(Cc1ccncc1)Nc1ccc2c(c1)[C@@H]1C[C@H](CC(=O)N3CCc4ccccc4C3)O[C@@H](CO)[C@@H]1O2,inactive,inactive,inactive
COc1cccc(NC(=O)N[C@H]2CC[C@@H](CC(=O)N3CCN(C)CC3)O[C@H]2CO)c1,inactive,inactive,inactive
COCC#Cc1cnc2c(c1)C(=O)N([C@H](C)CO)C[C@H](C)[C@H](CN(C)C(=O)CN1CCOCC1)O2,inactive,inactive,inactive
C[C@@H]1CN([C@@H](C)CO)C(=O)c2cc(NC(=O)Nc3ccc(C(F)(F)F)cc3)ccc2O[C@@H]1CN(C)S(=O)(=O)c1ccc(F)cc1,inactive,active,inactive
C[C@@H]1CN([C@@H](C)CO)C(=O)c2cc(NC(=O)Nc3ccc4c(c3)OCO4)ccc2O[C@@H](C)CCCCO[C@@H]1CN(C)C(=O)Nc1ccccc1,inactive,inactive,inactive
COc1ccc(S(=O)(=O)N(C)C[C@@H]2OCCCC[C@H](C)Oc3ccc(NS(=O)(=O)c4ccc(Cl)cc4)cc3C(=O)N([C@H](C)CO)C[C@H]2C)cc1,inactive,active,inactive
C[C@H]1CN([C@@H](C)CO)S(=O)(=O)c2ccc(C#Cc3cccnc3)cc2O[C@H]1CN(C)C(=O)Nc1ccc2c(c1)OCO2,inactive,inactive,inactive
Cc1noc(C)c1S(=O)(=O)Nc1ccc2c(c1)CC(=O)N([C@H](C)CO)C[C@@H](C)[C@H](CN(C)S(C)(=O)=O)O2,inactive,inactive,inactive
C[C@H](CO)N1C[C@H](C)[C@@H](CN(C)C(=O)c2cnccn2)Oc2ncc(C#CCC3CCCC3)cc2C1=O,inactive,inactive,inactive
C[C@H](CO)N1C[C@H](C)[C@H](CN(C)Cc2ccc(C(=O)O)cc2)OCCCC[C@H](C)Oc2ccc(NC(=O)Nc3cccc4ccccc34)cc2C1=O,inactive,inactive,inactive
CCc1nnc(SCC(=O)O)n1N,inactive,inactive,inactive
CN1CCN(C(=O)C[C@H]2CC[C@H]3[C@@H](COC[C@@H](O)CN3C(=O)C3CC3)O2)CC1,inactive,inactive,inactive
NC(C(=O)O)C(O)C(O)C(O)CO (stereo not given),inactive,inactive,inactive
C[C@@H]1CN([C@H](C)CO)S(=O)(=O)c2ccc(C#Cc3ccccc3F)cc2O[C@H]1CN(C)C(=O)Cc1ccncc1,inactive,inactive,inactive
C[C@@H]1CN([C@H](C)CO)C(=O)c2cc(NC(=O)Cn3cnnn3)ccc2O[C@H]1CN(C)Cc1ccc(C(=O)O)cc1,inactive,inactive,inactive
CO[C@H]1CN(C)C(=O)c2cc(NS(=O)(=O)CC(F)(F)F)ccc2OC[C@@H](C)N(C(=O)NC(C)C)C[C@H]1C,inactive,inactive,inactive
C[C@H](CO)N1C[C@H](C)[C@@H](CN(C)C(=O)c2ccncc2)OCCCC[C@H](C)Oc2ccc(NS(C)(=O)=O)cc2C1=O,inactive,inactive,inactive
CC(=O)[C@]12O[C@@]3(COC[C@H](c4ccccc4)N3C1=O)[C@H]1C(=O)N(C)C(=O)[C@H]12,inactive,inactive,inactive
C=CC[C@H](CC(=O)NCCO)C(=O)N[C@H](COC(=O)[C@H](CC=C)CC(=O)OC(C)(C)C)Cc1ccccc1,inactive,inactive,inactive
O=C(C[C@H]1CC[C@H](NS(=O)(=O)c2ccccc2F)[C@@H](CO)O1)NCCCN1CCOCC1,inactive,inactive,inactive
